Consider 44 compounds from PMC4336329 (PLoS ONE, 2015).

Screen size: about 310,000 compounds; about 2,200 (0.71%) showed an effect of 50% or more. The effect is printed as a negative number. This is one part of the list.

Sequence of human ether-à-go-go-related gene (hERG) potassium channel (Q12809 whole entry, looked up): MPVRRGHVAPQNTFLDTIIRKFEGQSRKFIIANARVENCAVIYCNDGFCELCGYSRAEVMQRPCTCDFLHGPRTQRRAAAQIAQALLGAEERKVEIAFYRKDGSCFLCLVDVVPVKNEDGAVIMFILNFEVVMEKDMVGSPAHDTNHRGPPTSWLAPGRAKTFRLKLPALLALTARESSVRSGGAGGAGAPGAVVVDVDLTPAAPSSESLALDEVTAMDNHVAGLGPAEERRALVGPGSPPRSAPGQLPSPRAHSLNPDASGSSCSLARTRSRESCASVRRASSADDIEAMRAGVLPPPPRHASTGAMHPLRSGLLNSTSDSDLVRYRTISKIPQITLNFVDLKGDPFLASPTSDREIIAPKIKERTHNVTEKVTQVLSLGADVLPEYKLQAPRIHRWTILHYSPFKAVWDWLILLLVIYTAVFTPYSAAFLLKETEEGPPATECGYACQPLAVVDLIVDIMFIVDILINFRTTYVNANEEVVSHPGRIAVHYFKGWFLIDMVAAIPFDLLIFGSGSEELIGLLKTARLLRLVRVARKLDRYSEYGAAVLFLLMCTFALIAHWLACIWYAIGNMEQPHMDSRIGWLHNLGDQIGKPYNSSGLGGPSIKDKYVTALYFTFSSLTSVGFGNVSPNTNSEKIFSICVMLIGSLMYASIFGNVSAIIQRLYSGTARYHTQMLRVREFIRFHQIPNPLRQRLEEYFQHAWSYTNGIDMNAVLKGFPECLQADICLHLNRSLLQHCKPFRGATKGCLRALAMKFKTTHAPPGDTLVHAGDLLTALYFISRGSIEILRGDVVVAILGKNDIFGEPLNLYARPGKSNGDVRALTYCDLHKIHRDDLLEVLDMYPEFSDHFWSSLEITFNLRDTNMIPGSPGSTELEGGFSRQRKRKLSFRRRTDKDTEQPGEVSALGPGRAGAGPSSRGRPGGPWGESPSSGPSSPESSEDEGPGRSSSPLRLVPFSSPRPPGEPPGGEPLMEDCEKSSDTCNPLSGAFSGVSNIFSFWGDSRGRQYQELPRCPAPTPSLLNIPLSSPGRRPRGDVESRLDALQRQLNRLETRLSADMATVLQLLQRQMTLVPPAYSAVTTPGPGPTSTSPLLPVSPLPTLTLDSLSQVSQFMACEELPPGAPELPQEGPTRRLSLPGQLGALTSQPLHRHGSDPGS

The assay concerns the target human ether-à-go-go-related gene (hERG) potassium channel (human, UniProt Q12809). Kind of assay: primary screen, population patch clamp on CHO cells stably expressing hERG.
As to `CC12CCC(C(=O)NCCCn3ccnc3)(OC1=O)C2(C)C` (centres unmarked), the “hERG current change (%, negative = inhibition) at 1uM” value is given as 16.8%.

In the case of `O=C(c1cn[nH]c1)N1CCc2c([nH]c3ccccc23)C1c1c(F)cccc1Cl` (centres unmarked), the “hERG current change (%, negative = inhibition) at 1uM” value came out at 0.034%.

Turning to `COc1ccc(S(=O)(=O)N(CC(=O)NCCCN(C)C)c2ccc(C)cc2)cc1OC`, the “hERG current change (%, negative = inhibition) at 1uM” value is -25.1%.

For `COc1ccc(NC(=O)c2cc3c(Cl)nc4ccccc4c3s2)c(OC)c1`, the “hERG current change (%, negative = inhibition) at 1uM” value came out at 2.69%.

As to `O=C(NCc1ccco1)C1CCCN(S(=O)(=O)c2ccccc2)C1` (centres unmarked), the “hERG current change (%, negative = inhibition) at 1uM” value is given as 10.7%.

In the case of `O=C(Oc1ccc(C(=S)N2CCOCC2)cc1Cl)c1ccccc1F`, the “hERG current change (%, negative = inhibition) at 1uM” value is 14.1%.

In the case of `Cc1ccc(OCCn2cc(C(=O)O)c3ccccc32)cc1`, the “hERG current change (%, negative = inhibition) at 1uM” value is given as 7.32%.

With `O=C(CSCc1cc(=O)n2nc(C3CC3)sc2n1)Nc1ccccc1Cl`, the “hERG current change (%, negative = inhibition) at 1uM” value was 11%.

With `O=C(O)c1ccc(-c2sc(Nc3ccccc3)n[n+]2-c2ccccc2)cc1.[Cl-]`, the “hERG current change (%, negative = inhibition) at 1uM” value is given as 6.9%.

With `O=C(COc1ccc(C(=O)NCCN2CCOCC2)cc1)Nc1cccc(C(F)(F)F)c1`, the “hERG current change (%, negative = inhibition) at 1uM” value was -4.02%.

Take `c1ccc(-c2ccc(-c3nc(-c4ccccn4)no3)cc2)cc1`: the “hERG current change (%, negative = inhibition) at 1uM” value is given as 11.4%.

With `O=C(O)c1c[nH]c(=S)n1-c1ccc(F)cc1`, the “hERG current change (%, negative = inhibition) at 1uM” value is listed as 24.1%.

Turning to `CC(C)CNC(=O)CN(C1CCCCC1)S(C)(=O)=O`, the “hERG current change (%, negative = inhibition) at 1uM” value came to 7.68%.

Turning to `COc1ccc(Cl)cc1NC(=O)CN1CCN(S(=O)(=O)N2CCC(C)CC2)CC1`, the “hERG current change (%, negative = inhibition) at 1uM” value is recorded as -3.67%.

Turning to `O=C(COC(=O)CNS(=O)(=O)c1cccc(Br)c1)NC(=O)Nc1ccc2c(c1)OCCO2`, the “hERG current change (%, negative = inhibition) at 1uM” value amounted to 15.8%.

For `CC(=O)Nc1ccc(N=Cc2c(O)ccc3ccccc23)cc1`, the “hERG current change (%, negative = inhibition) at 1uM” value is 9.71%.

In the case of `Cc1c(C(=O)O)sc2ncnc(N3CCCCC3C)c12` (centres unmarked), the “hERG current change (%, negative = inhibition) at 1uM” value is listed as 16.4%.

Consider `CCc1cccc(NC(=O)C2CCCN(S(=O)(=O)c3c(C)[nH]c(=O)[nH]c3=O)C2)c1` (centres unmarked), for which the “hERG current change (%, negative = inhibition) at 1uM” value turned out to be 7.07%.

On to `COC(=O)C1=C(c2cccc(C#N)c2)C[C@@H]2CC[C@H]1N2C(=O)NC1CCCCC1`, for which the “hERG current change (%, negative = inhibition) at 1uM” value came to 20.5%.

For the compound `O=C(Nc1ncc(Cl)cn1)c1cccs1`, the “hERG current change (%, negative = inhibition) at 1uM” value is recorded as 16.6%.

For the compound `CC(=O)Nc1ccc(Nc2cc(C)nc3c(-c4ccc(Cl)cc4)c(C)nn23)cc1`, the “hERG current change (%, negative = inhibition) at 1uM” value was 7.31%.

With `O=C(COC(=O)CCC(=O)c1ccccc1)NCCc1ccccc1`, the “hERG current change (%, negative = inhibition) at 1uM” value was found to be 4.19%.

As for `CCc1nnc(NC(=O)c2ccc(S(=O)(=O)NC3CCCCC3)cc2)s1`, the “hERG current change (%, negative = inhibition) at 1uM” value turned out to be 14.1%.

Regarding `CSc1ccc(NC(=O)Nc2cccn(Cc3ccccc3F)c2=O)cc1`, the “hERG current change (%, negative = inhibition) at 1uM” value is recorded as 14.2%.

For the compound `O=C(CSc1ncccn1)NCc1cccs1`, the “hERG current change (%, negative = inhibition) at 1uM” value is recorded as 3.46%.

In the case of `Cc1cc(/C=C2/NC(=O)NC2=O)c(C)n1-c1ccccn1`, the “hERG current change (%, negative = inhibition) at 1uM” value is -4.25%.

`CC1=Nc2ccccc2N=C(NC(=O)CSC(=S)N2CCCCC2)C1c1ccccc1` (centres unmarked): the “hERG current change (%, negative = inhibition) at 1uM” value is recorded as 2.66%.

For the compound `CC(C)[C@@H]1N[C@]2(C(=O)Nc3ccccc32)[C@@H]2C(=O)N(c3cccc(C(F)(F)F)c3)C(=O)[C@@H]21`, the “hERG current change (%, negative = inhibition) at 1uM” value was -0.552%.

With `Nc1cc(N)nc(SCC(=O)Nc2ccc3c(c2)OCCCO3)n1`, the “hERG current change (%, negative = inhibition) at 1uM” value is on record as 6.3%.

As for `Cc1nn(C(=O)CCC(=O)NCc2cccc(F)c2)c2ccccc12`, the “hERG current change (%, negative = inhibition) at 1uM” value is listed as 13%.

In the case of `C=CCNc1nc(C)c(C(C)=O)cc1C#N`, the “hERG current change (%, negative = inhibition) at 1uM” value is 14.9%.

Consider `COc1cc(/C=N/NC(=O)c2cccnc2)ccc1OC(=O)c1ccc2c(c1)OCO2`, for which the “hERG current change (%, negative = inhibition) at 1uM” value is given as 15%.

Take `CCOc1ccc(N2CC(C(=O)NCCc3ccc(S(N)(=O)=O)cc3)CC2=O)cc1` (centres unmarked): the “hERG current change (%, negative = inhibition) at 1uM” value was found to be 13.7%.

Take `O=C(c1cc(-c2ccc(Cl)s2)nc2ccccc12)N1CCOCC1`: the “hERG current change (%, negative = inhibition) at 1uM” value is -0.619%.

As for `CC(C)Oc1ccc(S(=O)(=O)N(C(C)C)C(C)C)cn1`, the “hERG current change (%, negative = inhibition) at 1uM” value came out at 7.54%.

`N=Cc1c(O)n(-c2cccc(Cl)c2)c(=O)[nH]c1=O`: the “hERG current change (%, negative = inhibition) at 1uM” value is -6.05%.

For `CC(C)(C)[C@@H]1C=C(C(=O)N2CCN(Cc3ccc4c(c3)OCO4)CC2)O[C@H](OCc2ccc(CO)cc2)C1`, the “hERG current change (%, negative = inhibition) at 1uM” value is -2.59%.

For the compound `CCOC(=O)c1c(C)[nH]c(C2=NNC(=Nc3cccc(Cl)c3)SC2)c1C`, the “hERG current change (%, negative = inhibition) at 1uM” value is listed as 12.7%.

Turning to `O=C(NCC(c1cccs1)N1CCOCC1)c1ccc(Cl)nc1` (centres unmarked), the “hERG current change (%, negative = inhibition) at 1uM” value is given as 1.79%.

Consider `CCCS(=O)(=O)N1CCC(Cc2ccc(OC)cc2)(C(=O)OCC)CC1`, for which the “hERG current change (%, negative = inhibition) at 1uM” value is reported as 8.92%.

As to `COc1ccc(NC(=O)Cn2c(=O)n(-c3ccccc3)c(=O)c3sccc32)c(OC)c1`, the “hERG current change (%, negative = inhibition) at 1uM” value amounted to 10.1%.

`O=C(CN1C(=O)C2C3C=CC(C3)C2C1=O)N1CC=C(c2ccccc2)CC1` (centres unmarked): the “hERG current change (%, negative = inhibition) at 1uM” value worked out at 3.53%.

Consider `Cc1cc(C)nc(NCC(O)CNc2ccccc2Cl)n1` (centres unmarked), for which the “hERG current change (%, negative = inhibition) at 1uM” value is reported as 13%.

As to `O=C1CCC(C(=O)N2CCCC(Nc3ccc(F)cc3)C2)=NN1` (centres unmarked), the “hERG current change (%, negative = inhibition) at 1uM” value was found to be 5.07%.
